The supplement of paper PMC4967469

Assays:
Experiment in all cases: Viability of human cancer cell lines after 72 h of drug (GDSC screen)
Thapsigargin = compound: C/C=C(/C)C(=O)O[C@H]1C(C)=C2[C@H]([C@@H]1OC(=O)CCCCCCC)[C@@](C)(OC(C)=O)C[C@H](OC(=O)CCC)[C@@]1(O)[C@H]2OC(=O)[C@@]1(C)O [Thapsigargin]; conditions: top dose 0.512 µM; top dose inferred
Protocol: (§1)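 Human cancer cell lines in 384-well plates, medium with 10% serum, drug for 72 h over a 256-fold dose range (nine 2-fold or five 4-fold steps up to the top dose). Adherent lines were fixed and stained with the nucleic acid dye Syto60, suspension lines read with resazurin; signal relative to control wells, capped at 0 and 100%. One two-parameter sigmoid per drug and line, fitted in a mixed model over all curves with the slope shared within a line.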

QL-X-138 = compound: C=CC(=O)Nc1cc(-n2c(=O)ccc3cnc4ccc(-c5cn[nH]c5)cc4c32)ccc1C [QL-X-138]; conditions: top dose 10.24 µM; top dose inferred
Protocol: as §1

GSK269962A = compound: CCn1c(-c2nonc2N)nc2cnc(Oc3cccc(NC(=O)c4ccc(OCCN5CCOCC5)cc4)c3)cc21 [GSK269962A]; conditions: top dose 5 µM; screen: GDSC drug entry 1192; top dose inferred
Protocol: as §1

MPS-1-IN-1 = compound: COc1cc(N2CCC(O)CC2)ccc1Nc1cc(Nc2ccccc2S(=O)(=O)C(C)C)c2cc[nH]c2n1 [MPS-1-IN-1]; conditions: top dose 20 µM; top dose inferred
Protocol: as §1

(5Z)-7-Oxozeaenol = compound: COc1cc(O)c2c(c1)/C=C/C[C@H](O)[C@H](O)C(=O)/C=C\C[C@H](C)OC2=O [(5Z)-7-Oxozeaenol]; conditions: top dose 10 µM; top dose inferred
Protocol: as §1

CP466722 = compound: COc1cc2ncnc(-n3nc(-c4ccccn4)nc3N)c2cc1OC [CP466722]; conditions: top dose 16 µM; top dose inferred
Protocol: as §1

Zibotentan = compound: COc1nc(C)cnc1NS(=O)(=O)c1cccnc1-c1ccc(-c2nnco2)cc1 [Zibotentan]; conditions: top dose 20 µM; top dose inferred
Protocol: as §1

ABT-888 = compound: C[C@]1(c2nc3c(C(N)=O)cccc3[nH]2)CCCN1 [ABT-888]; conditions: top dose 5 µM; top dose inferred
Protocol: as §1

ABT-869 = compound: Cc1ccc(F)c(NC(=O)Nc2ccc(-c3cccc4[nH]nc(N)c34)cc2)c1 [ABT-869]; conditions: top dose 1.024 µM; top dose inferred
Protocol: as §1

CHIR-99021 = compound: Cc1cnc(-c2cnc(NCCNc3ccc(C#N)cn3)nc2-c2ccc(Cl)cc2Cl)[nH]1 [CHIR-99021]
Protocol: as §1

Cytarabine = compound: Nc1ccn([C@@H]2O[C@H](CO)[C@@H](O)[C@@H]2O)c(=O)n1 [Cytarabine]; conditions: top dose 2 µM
Protocol: as §1

KU-55933 = compound: O=c1cc(-c2cccc3c2Sc2ccccc2S3)oc(N2CCOCC2)c1 [KU-55933]; conditions: top dose 10 µM
Protocol: as §1

[1] = top dose 2.56 µM, screen: GDSC drug entry 154
[2] = top dose 10 µM, screen: GDSC drug entry 1241, top dose inferred

Row | Cell Line | AUC (Thapsigargin) | IC50 (Thapsigargin) [µM] | AUC (QL-X-138) | IC50 (QL-X-138) [µM] | AUC (GSK269962A) | IC50 (GSK269962A) [µM] | AUC (MPS-1-IN-1) | IC50 (MPS-1-IN-1) [µM] | AUC ((5Z)-7-Oxozeaenol) | IC50 ((5Z)-7-Oxozeaenol) [µM] | AUC (CP466722) | IC50 (CP466722) [µM] | AUC (Zibotentan) | IC50 (Zibotentan) [µM] | AUC (ABT-888) | IC50 (ABT-888) [µM] | AUC (ABT-869) | IC50 (ABT-869) [µM] | AUC (CHIR-99021; [1]) | IC50 (CHIR-99021; [1]) [µM] | AUC (CHIR-99021; [2]) | IC50 (CHIR-99021; [2]) [µM] | AUC (Cytarabine) | IC50 (Cytarabine) [µM] | AUC (KU-55933) | IC50 (KU-55933) [µM]
1 | NCI-H2291 (lung adenocarcinoma, adherent) | 0.979 | > 0.512 | 0.975 | > 10.2 | 0.982 | > 5 | 0.984 | > 20 | 0.859 | > 10 | 0.98 | > 16 | 0.983 | > 20 | 0.982 | > 5 | 0.98 | > 1.02 | 0.984 | > 2.56 | 0.92 | > 10 | 0.887 | > 2 | 0.91 | > 10
2 | NCI-H2347 (lung adenocarcinoma, adherent) | 0.334 | 0.00996 | 0.869 | > 10.2 | 0.933 | > 5 | 0.847 | 19.7 | 0.526 | 0.747 | 0.775 | 7.72 | 0.978 | > 20 | 0.983 | > 5 | 0.97 | > 1.02 | 0.983 | > 2.56 | 0.973 | > 10 | 0.843 | 1.89 | 0.949 | > 10
3 | NCI-H2405 (lung adenocarcinoma, adherent) | 0.165 | 0.00265 | 0.822 | 6.84 | 0.815 | 3.14 | 0.968 | > 20 | 0.529 | 0.754 | 0.769 | 6.68 | 0.982 | > 20 | 0.986 | > 5 | 0.983 | > 1.02 | 0.974 | > 2.56 | 0.955 | > 10 | 0.882 | > 2 | 0.979 | > 10
4 | NCI-H2444 (non-small cell lung carcinoma, adherent) | 0.988 | > 0.512 | 0.988 | > 10.2 | 0.987 | > 5 | 0.95 | > 20 | 0.815 | 6.44 | 0.971 | > 16 | 0.981 | > 20 | 0.985 | > 5 | 0.987 | > 1.02 | 0.94 | > 2.56 | 0.97 | > 10 | 0.901 | > 2 | 0.961 | > 10
5 | NCI-H2452 (mesothelioma, adherent) | 0.983 | > 0.512 | 0.984 | > 10.2 | 0.848 | 4.86 | 0.984 | > 20 | 0.66 | 1.9 | 0.984 | > 16 | 0.984 | > 20 | 0.984 | > 5 | 0.981 | > 1.02 | 0.861 | > 2.56 | 0.794 | 5.63 | 0.874 | > 2 | 0.942 | > 10
6 | NUGC-4 (stomach, adherent) | 0.07 | < 0.002 | 0.917 | > 10.2 | 0.959 | > 5 | 0.804 | 10 | 0.608 | 1.24 | 0.933 | > 16 | 0.987 | > 20 | 0.979 | > 5 | 0.985 | > 1.02 | 0.986 | > 2.56 | 0.917 | > 10 | 0.967 | > 2 | 0.982 | > 10
7 | NY (osteosarcoma, adherent) | 0.095 | < 0.002 | 0.966 | > 10.2 | 0.944 | > 5 | 0.989 | > 20 | 0.708 | 2.39 | 0.959 | > 16 | 0.989 | > 20 | 0.974 | > 5 | 0.989 | > 1.02 | 0.935 | > 2.56 | 0.859 | 8.11 | 0.819 | 1.12 | 0.899 | > 10
8 | OAW-42 (ovary, adherent) | 0.454 | 0.0237 | 0.847 | 8.48 | 0.945 | > 5 | 0.976 | > 20 | 0.515 | 0.691 | 0.867 | > 16 | 0.984 | > 20 | 0.984 | > 5 | 0.984 | > 1.02 | 0.986 | > 2.56 | 0.957 | > 10 | 0.825 | 1.33 | 0.956 | > 10
9 | OE19 (oesophagus, adherent) | 0.52 |  | 0.984 | > 10.2 | 0.899 | > 5 | 0.986 | > 20 | 0.832 | 7.56 | 0.972 | > 16 | 0.985 | > 20 | 0.973 | > 5 | 0.984 | > 1.02 | 0.894 | > 2.56 | 0.885 | > 10 | 0.779 | 0.931 | 0.967 | > 10
10 | OE21 (oesophagus, adherent) | 0.166 | < 0.002 | 0.943 | > 10.2 | 0.874 | > 5 | 0.936 | > 20 | 0.744 | 4.16 | 0.935 | > 16 | 0.975 | > 20 | 0.944 | > 5 | 0.972 | > 1.02 | 0.939 | > 2.56 | 0.931 | > 10 | 0.773 | 1.09 | 0.915 | > 10

A lower IC50 marks a more sensitive line; fits outside the tested doses are given as limits. AUC sums up the same curve from the lowest dose to the 256-fold higher top dose; values near 1 show little effect. For some of these results: Where the top dose is marked as inferred, it comes from the curve model; the source does not state it. For some of these results: An entry number marks a drug with two screens in the source, which often give different values.
